# Reference: the supplement of paper PMC11417369
# The list shows a part of the results.
# System: PF3D7_0420300 AP2 domain 1 (GST-tagged)
# Test: gcPBM binding intensity (ln(normalized median fluorescence intensity)); higher = stronger DNA binding
# Summary of the method: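 GST-fused DNA-binding domains of P. falciparum, expressed in E. coli, were applied at about 25 μg on average for 1 h to an Agilent 4 × 180k array of primer-extended double-stranded 36-bp intergenic genomic probes and negative controls. Binding intensity is the highest Masliner-normalised natural-log median intensity across replicate spots of either probe orientation, measured with Alexa488 anti-GST antibody and a 488 nm scan.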
row,Sequence,gcPBM binding intensity (ln)
1,AATATATATTTATATTGTACATATATATATATTTCT [XGTACX_site2603],9.15
2,TGTATTTAAAATGGTTGTACATAAATAAAAATAAAA [XGTACX_site7771],9.23
3,ATTTATTTATTTATATGTACTTATATATGTATTTTC [XGTACX_site6269],9.45
4,TATTGAAACGTATAGACACACATATGATATATATAT [CACACA_site3226],9.42
5,AAAGTGTTAACCTAATCTTTAGTTTTTAAACAATAT [CACACA_negctrl_site841],8.98
6,TTAATTAAATATTATACACACAAAAAAATAACTTTA [CACACA_site6197],9.47
7,AAAAAAAAAAAACATACACACAAATATGTACATACA [CACACA_site7807],9.84
8,TATATATTAATATATGCATGTACGATTATTATAATA [TGCATGCA_site446],9.18
9,AATAAAAATCCACAAGCACACAAATGTACTTATATA [CACACA_site8783],9.35
10,TAAATACAAAAATGTACACACATATAAATATTTTTA [CACACA_site7612],9.42
11,TTTTTTTTTATATTTAGTACATATATATTATTATAT [XGTACX_site3334],9.28
12,ACAAGATGATGGAAATGTACATAAAAAGAATCATAT [XGTACX_site8682],9.74
13,AACACTACATAAAACTGTACAATAGTATTTTATTAT [XGTACX_site996],9.34
14,ATTATTAAAATGATATGTACGCACATAATATACATA [XGTACX_site3236],9.23
15,CTTAGTGTATTTGAATGTACGCATAAATATAATTAT [XGTACX_site2830],9.19
16,ATAATATTTTGAAACGGTACACTTTTAAAATACACT [XGTACX_site4423],9.26
17,AAAATAAGGAAAAAAAAAAAAAAAAAAAAAAAAAAG [CACACA_negctrl_site1291],8.95
18,AAAAAAAAAAAAAATACACACATAAAATAAATAACA [CACACA_site439],9.81
19,TTTGGTTATATTTAAAAAAGACTAATGAAAATTAAA [XGTACX_negctrl_site526],8.88
20,ATATATATATATTACACACACACAAAAAAAATAAAG [CACACA_site118],10.4
21,AATTTACAAATATAATGTACATAATTATATATATAT [XGTACX_site278],9.24
22,AATAGTAAAAATCACTGTACGTTTATTTTTAAAATG [XGTACX_site1035],9.22

row,Sequence,gcPBM binding intensity (ln)
1,CCATATACAACCATACGTACATATATATATATATAT [XGTACX_site8193],9.32
2,CATACCATACATAAAACACACAAAATTTACAGAATA [CACACA_site7451],9.8
3,TAGAAAAACATTACGTGTACCAAACATCCTAGCAAC [XGTACX_site4888],9.7
4,ATATTATTTATAGGGTGTACCTTATTATTATAAGAA [XGTACX_site7148],8.94
5,TATAATATTATACATAGTACACATCACACATCGCAA [XGTACX_site4650],9.57
6,TATATACTTTTATGTACACACCTATAATATGGGTGA [CACACA_site5044],9.19
7,TTATACATAAATTTTGTACACACAAAAAAAAAAAAG [CACACA_site8374],9.53
8,TTTCAAAAGTAATACTGTACTTATTTTTATGATTTA [XGTACX_site4184],9.11
9,GAATTTTTTTAATGTTGTACTTTTTTTTTTTTTTCT [XGTACX_site648],9.31
10,ACATATATATATATATATATATATATATTACATTTA [CACACA_negctrl_site627],9.12
11,TTTTTGTTAAACAGGGTGCTAATCTGAATTAATATT [GTGCAC_site9908],9.02
12,ACATATTTTATTTTTTGTACACATATATTATTTTTT [XGTACX_site6528],9.73
13,ATGTATTAAAAAAATTGTACTATAAAATGTAACCGC [XGTACX_site8083],9.49
14,AAGGCAAGCACTTAAACATGCATATAATAATATCAT [TGCATGCA_site698],9.03
15,ATAATATATATATATGCATGTACATATTTATCTTTA [TGCATGCA_site32],9.26
16,AAAAAAAAAAAAAACATACACACAAATATATACATA [CACACA_site4010],9.67
17,ATATATATATATATATGTACATATATATATGTATAT [XGTACX_site3959],9.17
18,ATATTATTTTAAAGTACACACATATATTAATATATA [CACACA_site2315],9.39
19,TATACATACAGACCCACACACAAAAAAAAAAAAAAA [CACACA_site6536],9.38
20,ATATCTTATGTTATCACACACACACGCACAAAACAG [CACACA_site6800],10.2
21,TGTATTTATAAACATGCACACGTGGTTGTATTTATA [CACACA_site5762],9.45
22,ATTTTTTTTATTTTTTATATAATTTTTTTATATTAT [CACACA_negctrl_site1521],9.38
